# From publication PMC4336329 (PLoS ONE, 2015)
# About 2,200 (0.71%) of roughly 310,000 compounds showed an effect of 50% or more. Effects have a minus sign here. The list shows a part of the results.
# Molecular target: human ether-à-go-go-related gene (hERG) potassium channel (human, UniProt Q12809)
# Experiment: primary screen, population patch clamp on CHO cells stably expressing hERG
# human ether-à-go-go-related gene (hERG) potassium channel, sequence (Q12809 whole entry, looked up): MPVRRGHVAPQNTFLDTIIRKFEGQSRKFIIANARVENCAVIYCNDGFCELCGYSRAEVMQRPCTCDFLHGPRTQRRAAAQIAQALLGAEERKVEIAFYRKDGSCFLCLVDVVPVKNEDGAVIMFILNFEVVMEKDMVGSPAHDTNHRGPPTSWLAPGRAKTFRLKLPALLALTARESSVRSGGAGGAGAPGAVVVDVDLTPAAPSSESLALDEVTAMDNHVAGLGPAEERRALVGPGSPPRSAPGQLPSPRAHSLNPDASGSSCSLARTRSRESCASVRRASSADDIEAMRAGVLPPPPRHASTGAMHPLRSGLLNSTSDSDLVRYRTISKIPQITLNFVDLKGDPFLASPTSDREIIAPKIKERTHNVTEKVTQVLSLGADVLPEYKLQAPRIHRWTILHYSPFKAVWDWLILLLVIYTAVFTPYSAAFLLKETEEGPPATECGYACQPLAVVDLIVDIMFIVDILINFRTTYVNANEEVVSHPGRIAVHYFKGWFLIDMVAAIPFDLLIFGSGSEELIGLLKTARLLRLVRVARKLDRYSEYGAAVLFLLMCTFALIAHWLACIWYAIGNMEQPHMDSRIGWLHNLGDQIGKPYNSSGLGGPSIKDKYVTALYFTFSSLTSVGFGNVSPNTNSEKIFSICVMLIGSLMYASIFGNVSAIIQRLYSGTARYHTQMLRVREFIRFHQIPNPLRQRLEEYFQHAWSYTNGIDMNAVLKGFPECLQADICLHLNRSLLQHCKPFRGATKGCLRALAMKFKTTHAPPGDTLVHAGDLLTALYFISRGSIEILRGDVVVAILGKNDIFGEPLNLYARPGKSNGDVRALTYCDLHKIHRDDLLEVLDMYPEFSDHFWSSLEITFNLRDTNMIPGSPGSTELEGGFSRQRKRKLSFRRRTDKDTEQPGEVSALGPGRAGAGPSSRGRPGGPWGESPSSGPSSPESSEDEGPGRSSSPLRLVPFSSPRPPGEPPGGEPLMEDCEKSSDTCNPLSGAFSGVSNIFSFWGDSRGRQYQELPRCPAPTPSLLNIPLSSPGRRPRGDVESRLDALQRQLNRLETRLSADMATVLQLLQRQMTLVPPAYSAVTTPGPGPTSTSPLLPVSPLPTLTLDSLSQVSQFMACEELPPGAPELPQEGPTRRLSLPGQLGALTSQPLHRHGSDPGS
row,SMILES,"hERG current change (%, negative = inhibition) at 1uM [%]"
1,COc1ccc(CC(=O)N/N=C/C=C/c2ccc3c(c2)OCO3)cc1OC,12.1
2,CCC(CC)NC(=O)CC(c1ccccc1)c1ccccc1,16
3,CC(C)Oc1ccc(C2CC(=O)N(c3ccccc3)C2=O)cc1 (centres unmarked),12.2
4,CC(C)c1ccc(N=C2N=C(N)c3ccccc32)cc1,-10.7
5,CCOc1ccc(C(=O)COC(=O)Cn2cnc3c2c(=O)n(C)c(=O)n3C)cc1,1.97
6,COc1cc2c(cc1OC)CN(c1nc(CN3CCCCC3)nc3sc4c(c13)CCCC4)CC2,-57.3
7,O=C(NCCN1CCN(c2cccc(Cl)c2)CC1)c1ccc(CSc2nc3ccncc3[nH]2)cc1,14.7
8,O=C(N[C@@H](Cc1ccc(Br)cc1)C(=O)O)OCC1c2ccccc2-c2ccccc21,6.58
9,CCOC(=O)c1sc2nc3c(cc2c1N)C(=O)CC(C)(C)C3,14.2
10,COc1ccc(OC)c(C2C(C#N)=C(N)Oc3cc(C)n(Cc4ccccn4)c(=O)c32)c1 (centres unmarked),-0.578
11,COC(=O)CC1SC(=O)NC1=O (centres unmarked),1.98
12,COc1ccc(S(=O)(=O)N(C)C)cc1NC(=O)COC(=O)CC1CCCC1,-49.5
13,COc1c(S(=O)(=O)N2CCCC2)ccc(Cl)c1Cl,3.45
14,FC(F)(F)c1ccc(Cl)c(-n2c(Cc3cccs3)n[nH]c2=S)c1,12.2
15,Cc1nc(Cl)sc1C(=O)Nc1cc(F)cc(F)c1,12.7
16,CCOc1ccc(C2=Nn3c(nnc3-c3cccnc3)SC2)cc1,-8.03
17,Oc1ccc(Cl)cc1C1=NNC(c2cc(Br)cc3c2OCOC3)C1 (centres unmarked),16.8
18,COc1cc(-c2n[nH]c(=S)n2-c2cc(C(F)(F)F)ccc2Cl)cc(OC)c1OC,2.87
19,C1CCC2(CC1)OCC1(CO2)COC2(CCCCC2)OC1,5.39
20,Cc1cccc2cc(/C=N/NC(=O)c3ccncc3)c(Cl)nc12,16.3
21,CCOc1ccc(C2C(C(=O)/C=C/c3ccco3)=C(O)C(=O)N2CCN2CCOCC2)cc1OC (centres unmarked),-0.804
22,O=c1[nH]ncn1-c1ccccc1,12.3
23,O=C(Nc1ccc(C2CCCCC2)cc1)C1CCN(c2ncccn2)CC1,16

row,SMILES,"hERG current change (%, negative = inhibition) at 1uM [%]"
1,C=CCN1C(=O)C(Cc2ccc(SC(F)F)cc2)SC1=Nc1ccc(C(=O)O)cc1 (centres unmarked),9.93
2,COc1cc(OC)c(/C=N/NC(N)=S)cc1Br,5.21
3,Cc1ccc(CNC(=O)c2nccnc2C(=O)O)cc1,12
4,CCOC(=O)c1cnn(-c2ccc([N+](=O)[O-])cc2)c1N,7.29
5,Cc1ccc(NC(=O)Cn2c(=O)oc3cc(S(=O)(=O)N4CCC(C)CC4)ccc32)cc1C,-4.29
6,CCCCn1c(C2CCCCC2)nc2cc3[nH]c(=O)c(C(C)C)nc3cc21,6.5
7,CN(C)/C=C(\C(=O)c1ccccc1)c1nnnn1-c1ccc(F)cc1,16.3
8,Cc1csc(N2CCCC2=O)n1,8.64
9,Cn1c(Cn2c(=O)sc3ccccc32)nnc1SCC(=O)Nc1ccc(Cl)cc1,2.68
10,CC(=O)Nc1cccc(/C(C)=N/NC(=O)c2ccc(CN3CCOCC3)cc2)c1,11.5
11,Cc1cccc(NC(=O)c2ccc(F)c(S(=O)(=O)N3CCC4(CC3)OCCO4)c2)c1,5.02
12,Cc1cccc(NC(=S)N(Cc2cccs2)Cc2cc3cc(C)cc(C)c3[nH]c2=O)c1,19.3
13,O=C(CSc1nc2ccccc2[nH]1)Nc1ccccc1N1CCOCC1,-0.458
14,COc1ccc(-c2cc(C)no2)cc1S(=O)(=O)N1CCCN(Cc2ccc(F)cc2)C1,19
15,CCOc1ccccc1CN1CCNC(=O)C1CC(=O)NCc1nccn1CC (centres unmarked),18.8
16,COc1ccccc1OC(C)C(=O)Nc1ccc(S(=O)(=O)N2CCN(C)CC2)cc1 (centres unmarked),7.42
17,O=[N+]([O-])c1cc(Cl)ccc1-c1nc(-c2ccccc2)no1,16.9
18,CCN1CCCC1CNC(=O)Cn1cccc1C(=O)c1ccccc1 (centres unmarked),6.82
19,Cc1cccc2c1N(CCOc1ccccc1)C(=O)C2=O,12.2
20,COC(=O)c1ccc(-n2c(CCC(=O)O)ccc2-c2ccccc2)cc1,11.6
21,Cc1ccccc1C(=O)N1CCC(C(=O)NC2CCCCCC2)CC1,23.5
22,COc1cc(NS(=O)(=O)c2ccc(NC(=O)c3ccc(F)cc3)cc2)ncn1,3.24
23,CC(C)(C)NC(=O)C(=O)NNC(=O)COc1ccc(Br)cc1,1.7

row,SMILES,"hERG current change (%, negative = inhibition) at 1uM [%]"
1,CCOc1ccc(S(=O)(=O)NCc2ccccc2OC)cc1,6.1
2,Cc1sc2ncnc(NCC(O)c3ccc([N+](=O)[O-])cc3)c2c1C (centres unmarked),-17.1
3,COc1ccc(S(=O)(=O)N(C)C)cc1NC(=O)CSc1nc(N)cc(N)n1,14.9
4,CCN1CCCc2cc(CN(CCN3CCOCC3)C(=S)Nc3ccc(OC)cc3)ccc21,7.88
5,C=CCNC(=O)c1cc(-c2ccncc2)nc2c(C)cc(C)cc12,-14.8
6,CCOc1cc(C(=O)N(C)c2ccccc2)cc(OCC)c1OCC,-5.38
7,COc1cc(NC(=O)Cn2cnc3sc(C)c(S(=O)(=O)N4CCOCC4)c3c2=O)cc(OC)c1OC,28.5
8,CCc1ccnc(NC(=O)Nc2ccc(OCc3ccccc3)cc2)c1,14.2
9,Cc1ccc(-n2c(C)cc(C(=O)CN3CCOCC3)c2C)cc1C,12.9
10,Cc1ccc(S(=O)(=O)Nc2ccc(N3CCOCC3)nc2)cc1,11.5
11,CC1CCc2nc(NC(=O)Nc3ccc4c(c3)OCO4)sc2C1 (centres unmarked),9.77
12,CCOc1cc(CNC(=O)CCCn2c(=O)c3cccn3c3cccnc32)cc(OCC)c1OCC,-1.07
13,CCc1cccc(NC(=O)C2CCN(S(=O)(=O)c3ccc4c(c3)CC(C)N4C(C)=O)CC2)c1 (centres unmarked),9.86
14,Cc1cc(NC(=O)CCC(=O)N(CC(=O)NC2CCCC2)c2cccc(F)c2)no1,7.59
15,O=S(=O)(c1cccs1)N1CCN(c2ccc(F)cc2)CC1,3.78
16,COc1cccc(CSc2nnc(-c3ccc(F)cc3)o2)c1,7.21
17,CCOC(=O)C1(Cc2cccc(OC)c2)CCN(C(C)COC)CC1 (centres unmarked),10.9
18,COc1cc(/C=C2/NC(=O)N(c3cccc(Cl)c3)C2=O)ccc1O,19.5
19,COC(CNC(=O)Cn1nc(Cc2ccncc2)c2ccccc2c1=O)OC,14.1
20,Cc1cc(=O)oc2cc(OCC(=O)OCC(=O)Nc3ccccc3F)ccc12,4.34
21,CCOC(=O)C(=O)N/N=C/c1ccc(F)cc1,11.3
22,COC(=O)c1ccc(NC(=O)C[n+]2ccccc2)cc1.[Cl-],11.6
23,Cl.Nc1nonc1C(=O)NCCNCc1cc(Br)ccc1OCc1ccc(F)cc1,-6.57

row,SMILES,"hERG current change (%, negative = inhibition) at 1uM [%]"
1,O=C(CN1C(=O)C2C3CC(C(Br)C3Br)C2C1=O)N1CCOCC1 (centres unmarked),10.1
2,Cc1ccc(CNC(=O)C2CC(c3ccc(C(F)(F)F)cc3)=NO2)o1 (centres unmarked),9.59
3,CSCC[C@H](NC(=O)OC(C)(C)C)C(=O)N1CCC(C(=O)N[C@H](C(=O)O)C(C)C)CC1,4
4,CCCCCCCCC[n+]1cccc2c3ccccc3ccc21.[Br-],-91.7
5,O=C1CSC(=NC2CCCCC2)N1,13.5
6,O=C(O)CC(CC(=O)Nc1ccccc1C(=O)O)c1ccccc1 (centres unmarked),15.1
7,CCC1CCCCN1CCCNC(=O)CSc1nc2nc(C)c(Cc3ccc(C)cc3)c(C)n2n1 (centres unmarked),-3.76
8,COCC(=O)NC(c1ccccc1)c1ccccc1,-8.16
9,Cn1nnnc1SCC(=O)NC1CCCc2ccccc21 (centres unmarked),11.4
10,O=C(CSCc1ccccc1)N1CCN(C(=O)c2ccco2)CC1,9.75
11,CCN(CC(=O)Nc1cc(Cl)ccc1C)C(=O)CCOc1ccccc1C,10.6
12,CCc1nnc(NC(=O)c2cccc(S(=O)(=O)N3CCN(C(C)=O)CC3)c2)s1,1.6
13,CC1CN(S(=O)(=O)c2ccc(C(=O)NCCCn3ccnc3)cc2)CC(C)O1 (centres unmarked),11.7
14,CC(=O)Nc1ccc(S(=O)(=O)NC2=NCN(C)CN2)cc1,11.3
15,Cc1nn(Cc2ccccc2)c(C)c1/C=N/NC(=O)c1cccnc1,7.98
16,COC(=O)c1sc2ccccc2c1NC(=O)c1cccs1,8.41
17,Cc1cc(F)ccc1S(=O)(=O)Nc1ccccc1C(=O)Nc1ncn[nH]1,0.246
18,Cc1c(C(=O)C(=O)N2CC=C(c3ccccc3)CC2)c2ccccc2n1C,7.1
19,O=C(NC(Cc1ccccc1)C(=O)O)c1ccc(S(=O)(=O)N2CCOCC2)cc1 (centres unmarked),3.41
20,Cc1ccc(CSc2ccc(S(=O)(=O)N3CCOCC3)cn2)cc1,3.6
